The values below come from US20240368282A1 (BIOSCEPTRE AUST, published 2024).

This experiment concerns the target T1, dysfunctional P2X7 receptor (human, UniProt Q99572 1-595).
T1 construct: Endogenous on cancer cell lines (MOLM-13, JeKo-1); also called nfP2X7; nfP2X7 receptor
T1 sequence: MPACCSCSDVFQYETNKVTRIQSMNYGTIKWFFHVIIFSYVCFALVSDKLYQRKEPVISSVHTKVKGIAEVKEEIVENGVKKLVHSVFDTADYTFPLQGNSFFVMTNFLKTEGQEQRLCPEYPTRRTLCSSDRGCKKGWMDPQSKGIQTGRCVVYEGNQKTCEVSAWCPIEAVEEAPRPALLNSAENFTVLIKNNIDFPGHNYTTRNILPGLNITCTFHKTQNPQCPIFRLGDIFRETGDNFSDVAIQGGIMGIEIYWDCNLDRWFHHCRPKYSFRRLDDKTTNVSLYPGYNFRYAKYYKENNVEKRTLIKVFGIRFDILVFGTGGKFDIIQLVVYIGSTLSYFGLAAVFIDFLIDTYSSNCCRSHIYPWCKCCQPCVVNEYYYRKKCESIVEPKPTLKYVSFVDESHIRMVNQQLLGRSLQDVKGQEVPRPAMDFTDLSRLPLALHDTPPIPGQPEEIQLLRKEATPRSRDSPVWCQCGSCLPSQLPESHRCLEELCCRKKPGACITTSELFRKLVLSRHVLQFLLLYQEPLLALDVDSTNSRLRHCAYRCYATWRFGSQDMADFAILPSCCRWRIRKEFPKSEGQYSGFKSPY
The experiment can be described thus: flow cytometry, anti-HIS-FITC, MOLM-13 cells. The protocol: Indirect staining of artificial proteins on MOLM-13 cells via anti-HIS staining. […] Histogram overlay of HIS-FITC positivity on MOLM-13. […] HIS-ab was used according to manufacturer with 1 μl per test, target cells were incubated with 50 μl of supernatant from Lenti-X™ 293T cells for 10 min at room temperature. Supernatant harvested 48 h after transfection.
A general note: Flow cytometry measures light scatter and fluorescence of single cells or particles in a stream.

B1: Orchestration molecule OR1 (nfP2X7), single domain Fc fusion protein (Fc fusion)
chain: EVQLLESGGGLVQPGGSLRLSCAASGFTFRNHDMGWVRQAPGKGLEWVSAISGSGGSTYYANSVKGRFTISRDNSKNTLYLQMNSLRAEDTAVYYCAEPKPMDTEFDYRSPGTLVTVSS[human IgG1 Fc with changes and a few adjoining residues skipped]
notes: BIL03 VH single domain, IgG1 hinge-CH2-CH3 (SDIE), 6xHis; Tested as supernatant of transfected Lenti-X 293T cells
Regarding B1, the binding result was “binds”.
